Several values for one entry are separate records, joined by “and”; a condition that tells them apart may be missing. Equal entries are not always repeated. Inconclusive means that the source gave no clear call. Such entries were picked first, then a sample of the others. Potencies of inconclusive entries are doubtful fits and often do not repeat. Activity calls are given as the source filed them. Unless noted, calls follow the shape of the dose curve; as a rule, active = well fitted curve in the direction sought with a large enough effect in the repeat runs; inconclusive = weak or mixed curves; inactive = no such curve, though single readings can be large; an effect the other way counts as inactive or inconclusive.
Columns and labels:
[1] = qHTS assay for small molecule agonists of the p53 signaling pathway (AID 651631; calls by dose curve; also: nearly all actives have a fitted effect of over 15% in size; as to activation: % is scaled to controls: 0 for no effect and ±100 for the full control effect); conditions: HCT-116 p53RE-bla reporter, beta-lactamase FRET ratio, 16 h; activation: at 73.3 µM (top of the series) unless noted
Outline: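 Agonist mode screen using a stably integrated beta-lactamase gene under p53 response elements in HCT-116 cells. Compound exposure lasts 16 h at 37 °C; fluorescence intensity is measured following 2 h FRET substrate loading.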

[2] = qHTS assay for small molecule disruptors of the mitochondrial membrane potential (AID 720635); conditions: HepG2 mitochondrial membrane potential, Mito-MPS dye ratio; ratio activity, negative = MMP loss: at 83.2 µM (top of the series) unless noted; as to ratio activity, negative = MMP loss: % is scaled to controls: 0 for no effect and ±100 for the full control effect
Outline: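 HepG2 cells (2,000/well) attached overnight at 37C, then took compound for 1 hr at 37C, 5% CO2. Mito-MPS dye was added for 30 min; fluorescence was read at 490/535 nm (monomers) and 540/590 nm (aggregates).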

[3] = target: Glucocorticoid receptor (Homo sapiens) (UniProt P04150); assay: qHTS assay to identify small molecule agonists of the glucocorticoid receptor (GR) signaling pathway (AID 720691; active = well fitted activation curve with a large enough effect in the signal ratio in the repeat runs, not every such curve was filed as active; inconclusive = weak or mixed curves, or effect the other way; inactive = no such curve, though single readings can be large or run the other way; the % refers to the signal ratio; as to activation: % is scaled to controls: 0 for no effect and ±100 for the full control effect); conditions: GR-bla HeLa, beta-lactamase reporter ratio, 18 h; activation: at 62.4 µM (top of the series) unless noted
Outline: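 Compounds in DMSO, alongside positive controls, were added to GR-bla HeLa reporter cells and incubated 18 h at 37 C; GRE-driven beta-lactamase was detected by fluorescence after 2 h with FRET substrate at room temperature.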

[4] = target: Glucocorticoid receptor (Homo sapiens) (UniProt P04150); assay: qHTS assay to identify small molecule antagonists of the glucocorticoid receptor (GR) signaling pathway (AID 720692; active = well fitted inhibition curve with a large enough effect in the signal ratio in the repeat runs, not every such curve was filed as active; inconclusive = weak or mixed curves, or effect the other way; inactive = no such curve, though single readings can be large or run the other way; the % refers to the signal ratio; as to activity change, negative = inhibition: % is scaled to controls: 0 for no effect and ±100 for the full control effect); conditions: GR-bla HeLa, beta-lactamase FRET ratio, dexamethasone-stimulated, 18 h; activity change, negative = inhibition: at 58.5 µM (top of the series) unless noted
Outline: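 In a 1536-well cell format, compounds were added 4 h after seeding GR-bla HeLa cells, together with dexamethasone at 5 nM final; reporter activity was measured by FRET-substrate fluorescence following 18 h at 37 C.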

[5] = qHTS assay to test for compound auto fluorescence at 460 nm (blue) in HepG2 cell free culture (AID 720685)
Outline: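 Cell-free plates of MEM plus 10% FBS received 23 nL compound or DMSO vehicle; blue-channel (405/460 nm) intensity scored against triamterene as reference fluorophore.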

[6] = qHTS assay to identify small molecule antagonists of the glucocorticoid receptor (GR) signaling pathway - cell viability counter screen (AID 720693); conditions: GR-bla HeLa viability, CellTiter-Glo luminescence, 18 h, with 5 nM dexamethasone present; viability change, negative = cytotoxic: at 58.5 µM (top of the series); also: nearly all actives have a fitted effect of over 55% in size
Potency is read from the fitted curve at half-maximal effect; tags tell the direction and shape of the fitted curve or compound fluorescence and quenching.

Sequence of UniProt P04150 (P04150 whole entry, looked up): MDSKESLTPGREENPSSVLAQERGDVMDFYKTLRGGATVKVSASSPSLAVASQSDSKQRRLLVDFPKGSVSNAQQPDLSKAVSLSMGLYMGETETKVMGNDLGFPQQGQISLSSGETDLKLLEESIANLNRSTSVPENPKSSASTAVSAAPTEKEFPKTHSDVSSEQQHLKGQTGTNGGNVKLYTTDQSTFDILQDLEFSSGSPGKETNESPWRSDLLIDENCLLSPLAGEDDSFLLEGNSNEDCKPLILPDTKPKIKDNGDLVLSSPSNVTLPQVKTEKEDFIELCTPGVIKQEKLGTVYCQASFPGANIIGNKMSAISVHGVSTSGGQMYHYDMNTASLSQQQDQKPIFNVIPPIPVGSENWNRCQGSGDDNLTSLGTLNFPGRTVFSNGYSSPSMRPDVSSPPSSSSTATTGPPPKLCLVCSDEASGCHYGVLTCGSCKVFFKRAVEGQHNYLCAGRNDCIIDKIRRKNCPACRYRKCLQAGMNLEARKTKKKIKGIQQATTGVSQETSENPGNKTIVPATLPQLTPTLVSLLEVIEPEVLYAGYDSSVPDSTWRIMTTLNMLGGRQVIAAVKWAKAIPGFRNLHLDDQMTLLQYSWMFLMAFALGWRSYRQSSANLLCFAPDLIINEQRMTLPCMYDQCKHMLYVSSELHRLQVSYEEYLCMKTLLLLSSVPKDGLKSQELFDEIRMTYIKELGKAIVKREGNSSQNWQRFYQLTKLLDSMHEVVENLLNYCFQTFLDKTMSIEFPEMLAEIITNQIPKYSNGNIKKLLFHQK

Nc1nc(F)nc2c1ncn2[C@@H]1O[C@H](CO)[C@@H](O)[C@@H]1O
Potency [1]: active: 13.3 µM and active: 8.41 µM | Potency [2]: inactive | Potency [3]: inactive | activity change, negative = inhibition [4]: inconclusive: 7.41%

COc1ccc(NC(=O)CC(C)=O)cc1
Potency [1]: inactive | Potency [2]: inconclusive: 7.7 µM [inhibitor, partial curve, poor fit] | Potency [5]: inconclusive: 11.2 µM [fluorescent, partial curve, poor fit]

CCC(=O)Oc1ccc(/C(CC)=C(\CC)c2ccc(OC(=O)CC)cc2)cc1
Potency [1]: active: 15.4 µM | Potency [2]: active: 8.63 µM | activation [3]: inconclusive: -12.5% | Potency [4]: inconclusive: 24.5 µM [rising, full curve] | Potency [6]: inconclusive: 49 µM [cytotoxic, partial curve, poor fit]

O=C(O)c1cc(-c2ccc(F)cc2F)ccc1O
Potency [1]: inconclusive: 2.02 µM [rising, partial curve] | Potency [2]: active: 11.4 µM | activity change, negative = inhibition [4]: inconclusive: -0.0374% [at 27 µM]

COC(=O)CCCCCCCC(=O)OC
activation [1]: inconclusive: 3.13% | Potency [2]: inconclusive: 61.1 µM [inhibitor, single point] | Potency [4]: inactive

CC(C(=O)O)c1ccc(C(=O)c2cccs2)cc1 (stereo not given)
Potency [1]: inconclusive: 5.07 µM [rising, full curve] | ratio activity, negative = MMP loss [2]: inconclusive: -14.3% [at 39.1 µM] | Potency [4]: inactive

NC(=O)Nc1ccc(Cl)c(Cl)c1
Potency [1]: inconclusive: 54.3 µM [activator, partial curve, poor fit] | Potency [2]: active: 48.4 µM | activation [3]: inconclusive: -14.5% | Potency [4]: active: 48.9 µM

C[C@]1(Cn2ccnn2)[C@H](C(=O)O)N2C(=O)C[C@H]2S1(=O)=O
Potency [1]: inconclusive: 0.0237 µM [inhibitor, full curve] | ratio activity, negative = MMP loss [2]: inconclusive: 18.7% | Potency [3]: inconclusive: 2.68 µM [rising, single point] | Potency [4]: inconclusive: 0.169 µM [rising, full curve, poor fit]

CCCCCCCCCCCCCCN(CCO)CCO
Potency [1]: inconclusive: 54.5 µM [cytotoxic, partial curve] | Potency [2]: inconclusive: 6.11 µM [activator, full curve] | Potency [3]: inconclusive: 21.9 µM [falling, single point] | Potency [4]: active: 19.5 µM | Potency [6]: inconclusive: 21.9 µM [cytotoxic]

CCOC(=O)O[C@]1(C(=O)OCCl)CC[C@H]2[C@@H]3CCC4=CC(=O)C=C[C@]4(C)[C@H]3[C@@H](O)C[C@@]21C
Potency [1]: inconclusive: 23.7 µM [rising, partial curve] | Potency [2]: inactive | Potency [3]: active: 0.0756 µM | Potency [4]: inconclusive: 0.0952 µM [activator, full curve]

CCCc1nc2c(C)cc(-c3nc4ccccc4n3C)cc2n1Cc1ccc(-c2ccccc2C(=O)O)cc1
Potency [1]: inconclusive: 4.22 µM [rising, partial curve, poor fit] | Potency [2]: inconclusive: 0.841 µM [activator, full curve] | activity change, negative = inhibition [4]: inconclusive: -42.2%

CCCCCCCCCC[N+](C)(C)[O-]
Potency [1]: inconclusive: 77 µM | Potency [2]: inconclusive: 15.4 µM [activator, full curve] | activity change, negative = inhibition [4]: inconclusive: 20.1%

CC(C)=CCC[C@](C)(O)[C@@H]1CC=C(C)CC1
Potency [1]: inactive | Potency [2]: active: 30.6 µM | Potency [4]: inconclusive: 61.6 µM [activator, single point]

Cc1onc(-c2c(Cl)cccc2Cl)c1C(=O)N[C@@H]1C(=O)N2[C@@H]1SC(C)(C)[C@@H]2C(=O)O
Potency [1]: inconclusive: 0.298 µM [activator, single point] | Potency [2]: inactive | activity change, negative = inhibition [4]: inconclusive: 5.15%

Source: PubChem BioAssay (Tox21)
